Here are results for 1 molecule from patent publication US9803013B2, “Biological materials and uses thereof” (BioInvent International AB, priority 2005, dated 2017).

One test deals with Ramos. Briefly: Apoptosis induction by cross-linked IgG (Annexin V/PI). It is filed as cell-based, human. The note with it: viable cells after 6 hour incubation, crosslinked, compared to control FITC-8 IgG1. As to the method: (§1) 2×10^5 B lymphoma cells (Raji or Ramos) or Jurkat T cells were incubated with serially diluted and detoxified scFv's in culture medium for 1 h on ice.
(§2) When whole IgGs were used for apoptosis induction, cross-linking reagent was replaced by goat Fab′2 anti-human Fc γ antibody (Jackson ImmunoResearch) with minimal cross-reactivity with non-IgG antibody isotypes (to avoid unspecific cross-linking of endogenous B lymphoma associated surface immunoglobulins) and incubated, as described above, for 6 h.
(§3) Apoptotic cells were, unless otherwise stated, detected by combined staining with Annexin V Alexa Fluor 488 (AV) and Propidium Iodide (PI) (both from Molecular Probes, Invitrogen) and subsequent flow-cytometric analysis, Cells were defined as viable (AV−/PI−), early apoptotic (AV+/PI−) or late apoptotic/necrotic (AV+/PI+). AV and PI signals were recorded in the FL1 and FL2 or FL3 channels (as indicated in the text), respectively, using a FACSCalibur instrument (BD Biosciences).
(§4) • ^aApoptosis Induction; determined by percentage of viable cells after 6 hour incubation with any of the human antibodies, crosslinked with Goat anti-Human (gamma) Fc specific antibody; −, viability not affected; +, 95-80%; ++, 79-60%; +++, 59-40% viable cells compared to control (human FITC-8 IgG1). […]
(§5) BI-505 receptor occupancy was studied following FACS analyses of tumor cells incubated with increasing concentrations of BI-505 in vitro. Briefly, following pre-blocking of tumor cell FcγR with 1 mg/ml human IgG on ice for 15 min, tumor cells were incubated with 10-fold serially diluted (10 μg/ml to 0.00001 μg/ml) AF647-BI505 and surface bound BI-505 was recorded as the mean fluorescence intensities (MFI) picked up in the FL4 channel of a FACSCalibur instrument. The experiment was repeated three times and mean MFI values were calculated and plotted as a function of antibody concentration. […] BI-505 concentration dependent PCD was calculated by plotting the percentage of maximal tumor PCD in vitro as a function of BI-505 concentration in a manner analogous to that described for BI-505 receptor occupancy. […]

A further test deals with Raji. The description is as above. It is filed as cell-based, human. Conditions: viable cells after 6 hour incubation, crosslinked, compared to control FITC-8 IgG1. The method, then:
as §1, §2, §3, §4, §5

For another test, the system named is Daudi. Described as above. Conditions: viable cells after 6 hour incubation, crosslinked, compared to control FITC-8 IgG1. It is filed as cell-based, human. The method, then: as §1, §2, §3, §4, §5
For another test, the system named is PC-3 cells. Description: Apoptosis induction in carcinoma cells (cross-linked IgG, 16-24 hours, Annexin V/PI). The test is classed as cell-based, human. The note with it: PC-3, cross-linked IgG. The method, then: The prostate carcinoma cell line PC-3 was grown in Complete Growth Medium (RPMI 1640, supplemented with 10% FCS, 10 mM HEPES, and 2 mM L-Glutamine) to 80% confluency in a 6 well plate. The prostate carcinoma cell line DU145 was grown in MEM with Earl's salts, supplemented with 10% FCS, 1 mM sodium pyruvate, and 1 mM non-essential amino acids and the derivate of a melanoma cell line MDA MB 435 was grown in DMEM supplemented with 10% FCS.
For apoptosis assays cells were washed in PBS and serially diluted B11 IgG1 (or B1 IgG1, Trastuzumab or negative antibody control for controls) was added to individual wells and binding was allowed during a 1-2 h incubation at 4° C. The cells were washed and Complete Growth Medium was added, containing cross-linking antibody, Fab′2 Goat anti-Human Fab′2, at 10 μg/ml. Cells were incubated in a humidified atmosphere, with 5% CO2 at 37° C., for 16-24 hours. […] The percentage apoptotic cells was determined by the formula: % apoptotic cells=100−% AF488−AV/PI−/−.
Cells were seeded in 6 well plates with Complete Growth Medium three days before the onset of the experiment. […] Cells were washed in ice-cold PBS, subjected to Annexin V/propidium iodide staining, and analysed for viability/apoptosis as described in example 5 above.

Test [1] relates to carcinoma cell lines initially tested. Briefly: IgG binding to tumour cell lines, flow cytometry. Set-up: species or system human. Conditions: all carcinoma cell lines initially tested. From the text: FIG. 6—Binding of B1, B11, C11 IgG, to tumour cell lines of different origin. The antigen distribution of antigens targeted by the B1, B11, and C11 antibodies on different carcinoma cell lines was investigated by flow-cytometry.
The antigen distribution of human antibody targeted antigens, mainly for B11, on different carcinoma cell lines was investigated. Cells (MCF-7 and MDA MB 435S breast carcinoma, JAR and JEG-3 chorio-carcinoma, A549 lung carcinoma, TCC-SUP urinary bladder carcinoma, MDA MB 435 melanoma, HPAC, PANC-1 and BxPC-3 pancreatic carcinoma, PC-3 and DU145 prostate carcinoma, LS174 T, CaCo2, and Lovo colorectal carcinoma, and THP-1 monocytic leukaemia cells), were washed in PBS, and resuspended at 4×10^6 cells/ml in Complete Medium (200,000 cells/50 […] sample). […] Cells were incubated with either of the antibodies for 1 hour on ice, washed by resuspension in PBS/BSA 0.5%, centrifuged at 1200 rpm for 5 min, and complete aspiration of the supernatants was undertaken. Cells were incubated with PE-conjugated Goat F(ab′)2 anti-Human IgG (Caltag Laboratories, Cat no: H10104), diluted 1/50 in PBS/BSA 0.5%, for 30 min, on ice. Following resuspension of in 300 μl PBS/BSA 0.5%, cells were analysed for IgG binding using a FACScan instrument.

Another test concerns Reh/KM-3. Briefly: IgG binding to pre B cell leukaemia cell line, flow cytometry MFI. The arrangement: species or system human. The note with it: Reh/KM-3, pre B cell Leukaemia; control FITC-8 IgG MFI subtracted. As to the method:
(§6) • ^aApoptosis Induction; determined by percentage of viable cells after 6 hour incubation with any of the human antibodies, crosslinked with Goat anti-Human (gamma) Fc specific antibody; −, viability not affected; +, 95-80%; ++, 79-60%; +++, 59-40% viable cells compared to control (human FITC-8 IgG1). […] The cell line dependent MFI value of control human FITC-8 IgG antibody was subtracted from the MFI of each human antibody.

The subject of the next test is WSU-NHL. Description: Apoptosis induction by cross-linked IgG (Annexin V/PI). It is filed as cell-based, human. The note with it: viable cells after 6 hour incubation, crosslinked, compared to control FITC-8 IgG1. As to the method:
as §1, §2, §3, §6

The next test relates to MC/CAR. The description is as above. It is filed as cell-based, human. The note with it: viable cells after 6 hour incubation, crosslinked, compared to control FITC-8 IgG1. As to the method: as §1, §2, §3, §6

B1: B1: fully human IgG1 antibody specific for HLA-DR/DP; VH and VL sequences of FIG. 9 (SEQ ID NOs. 2 and 4) (antibody, listed as Homo sapiens, V domains shown)
VH: [about 100 residues left out here]DGLLPLDYWGQGTLVTVSS
VL: QSVLTQPPSASGTPGQRVTISCSGGSSNIGGNAVNWYQQLPGTAPKLLIYENNKRPSGVPDRFSGSKSGTSASLAISGLRSEDEADYYCSSYAVSNNFEVLFGGGTKLTVLG
With B1, the “Apoptosis Induction” value was “+ (95-80%)” with Ramos; “+++ (59-40% viable cells compared to control (human FITC-8 IgG1))” in the test on Raji; “+ (95-80%)” with Daudi; “did not induce apoptosis” in the test with PC-3 cells; “+ (95-80%)” with WSU-NHL; “++ (79-60%)” with MC/CAR. Further, the “binding” value in test [1] was “lack of binding”. Moreover, the MFI with Reh/KM-3 came to 240.
